Data from the supplement of paper PMC8728848.
This is one part of the list.

Key:
Test in all cases: glycan array binding signal (z-score within array); higher = stronger binding
Details in all cases: glycan notation: IUPAC condensed, linker removed
[1] = target: Gal(b1-4)GlcNAc(b1-2)Man(a1-3)[Gal(b1-4)GlcNAc(b1-2)Man(a1-6)]Man(b1-4)GlcNAc(b1-4)GlcNAc
How it was run: (§1)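 The Consortium for Functional Glycomics database supplied 3228 glycan arrays, of which those lacking an available protein sequence were dropped. The binding signal, a within-array Z-score, was averaged across arrays of the same protein sequence and across linkers. Negative scores can be read as non-binding.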

[2] = target: Gal(b1-4)GlcNAc(b1-2)Man(a1-3)[Gal(b1-4)GlcNAc(b1-2)Man(a1-6)]Man(b1-4)GlcNAc(b1-4)[Fuc(a1-6)]GlcNAc
How it was run: as §1

[3] = target: Gal(b1-4)GlcNAc(b1-2)Man(a1-3)[Gal(b1-4)GlcNAc(b1-2)Man(a1-6)][Gal(b1-4)GlcNAc(b1-4)]Man(b1-4)GlcNAc(b1-4)[Fuc(a1-6)]GlcNAc
How it was run: as §1

[4] = target: Gal(b1-4)GlcNAc(b1-2)Man(a1-3)[Gal(b1-4)GlcNAc(b1-2)Man(a1-6)][GlcNAc(b1-4)]Man(b1-4)GlcNAc(b1-4)[Fuc(a1-6)]GlcNAc
How it was run: as §1

[5] = target: Gal(b1-4)GlcNAc(b1-2)Man(a1-3)[GlcNAc(b1-2)Man(a1-6)]Man(b1-4)GlcNAc(b1-4)GlcNAc
How it was run: as §1

[6] = target: Gal(b1-4)GlcNAc(b1-2)Man(a1-3)[GlcNAc(b1-4)][Gal(b1-4)GlcNAc(b1-2)Man(a1-6)]Man(b1-4)GlcNAc(b1-4)GlcNAc
How it was run: as §1

[7] = target: Gal(b1-4)GlcNAc(b1-2)Man(a1-3)[Man(a1-6)]Man(b1-4)GlcNAc(b1-4)GlcNAc
How it was run: as §1

[8] = target: Gal(b1-4)GlcNAc(b1-2)Man(a1-6)Man(b1-4)GlcNAc(b1-4)GlcNAc
How it was run: as §1

[9] = target: Gal(b1-4)GlcNAc(b1-2)Man(a1-6)[GlcNAc(b1-2)Man(a1-3)]Man(b1-4)GlcNAc(b1-4)GlcNAc
How it was run: as §1

[10] = target: Gal(b1-4)GlcNAc(b1-2)Man(a1-6)[Man(a1-3)]Man(b1-4)GlcNAc(b1-4)GlcNAc
How it was run: as §1

[11] = target: Gal(b1-4)GlcNAc(b1-2)[Gal(b1-4)GlcNAc(b1-4)]Man(a1-3)[Gal(b1-4)GlcNAc(b1-2)Man(a1-6)]Man(b1-4)GlcNAc(b1-4)GlcNAc
How it was run: as §1

[12] = target: Gal(b1-4)GlcNAc(b1-2)[Gal(b1-4)GlcNAc(b1-4)]Man(a1-3)[Gal(b1-4)GlcNAc(b1-2)[Gal(b1-4)GlcNAc(b1-6)]Man(a1-6)]Man(b1-4)GlcNAc(b1-4)GlcNAc
How it was run: as §1

[13] = target: Gal(b1-4)GlcNAc(b1-2)[Gal(b1-4)GlcNAc(b1-4)]Man(a1-3)[GlcNAc(b1-4)][Gal(b1-4)GlcNAc(b1-2)Man(a1-6)]Man(b1-4)GlcNAc(b1-4)GlcNAc
How it was run: as §1

[14] = target: Gal(b1-4)GlcNAc(b1-2)[Gal(b1-4)GlcNAc(b1-4)]Man(a1-3)[GlcNAc(b1-4)][Gal(b1-4)GlcNAc(b1-2)[Gal(b1-4)GlcNAc(b1-6)]Man(a1-6)]Man(b1-4)GlcNAc(b1-4)GlcNAc
How it was run: as §1

[15] = target: Gal(b1-4)GlcNAc(b1-2)[Gal(b1-4)GlcNAc(b1-6)]Man(a1-6)[Gal(b1-4)GlcNAc(b1-2)Man(a1-3)]Man(b1-4)GlcNAc(b1-4)GlcNAc
How it was run: as §1

[16] = target: Gal(b1-4)GlcNAc(b1-2)[Gal(b1-4)GlcNAc(b1-6)]Man(a1-6)[Gal(b1-4)GlcNAc(b1-2)Man(a1-3)]Man(b1-4)GlcNAc(b1-4)[Fuc(a1-6)]GlcNAc
How it was run: as §1

[17] = target: Gal(b1-4)GlcNAc(b1-2)[Gal(b1-4)GlcNAc(b1-6)]Man(a1-6)[GlcNAc(b1-4)][Gal(b1-4)GlcNAc(b1-2)Man(a1-3)]Man(b1-4)GlcNAc(b1-4)GlcNAc
How it was run: as §1

[18] = target: Gal(b1-4)GlcNAc(b1-2)[Gal(b1-4)GlcNAc(b1-6)]Man(a1-6)[GlcNAc(b1-4)][Gal(b1-4)GlcNAc(b1-2)[Gal(b1-4)GlcNAc(b1-4)]Man(a1-3)]Man(b1-4)GlcNAc(b1-4)[Fuc(a1-6)]GlcNAc
How it was run: as §1

[19] = target: Gal(b1-4)GlcNAc(b1-3)Gal(b1-3)GalNAc
How it was run: as §1

B1: Arath Fbox (Arabidopsis thaliana), NP_178341.1 (protein)
chain: EFTWGRKRRVKSESSPFDSFPEDCISYIISFTNPRDACVAATVSKTFESTVKSDIIWEKFLPADYESLIPPSRVFSSKKELYFSLCNDPVLFDDDKKSVWLEKASGKRCLMLSAMNLSIIWGDNPQYWQWIPIPESRFEKVAKLRDVCWFEIRGRTNTRVLSPRTRYSAYIVFKGVDKCYGFQNVAIEAAVGVVGQEPSRRLICFSEAIRRGRRNVVKPKQREDGWMEIELGEFFNDGGIMDNDEIEMSALETKQLNRKCGLIIQGIEIRPAKILAAAAASFLEQKLISEEDLNSAVDHHHHHH
[1]
  glycan array binding signal (z-score): -0.122
[2]
  glycan array binding signal (z-score): 1.3
[3]
  glycan array binding signal (z-score): -0.066
[4]
  glycan array binding signal (z-score): -0.707
[5]
  glycan array binding signal (z-score): -0.602
[6]
  glycan array binding signal (z-score): -0.698
[7]
  glycan array binding signal (z-score): -0.048
[8]
  glycan array binding signal (z-score): 2.46
[9]
  glycan array binding signal (z-score): -0.209
[10]
  glycan array binding signal (z-score): 0.739
[11]
  glycan array binding signal (z-score): -0.507
[12]
  glycan array binding signal (z-score): 0.106
[13]
  glycan array binding signal (z-score): -0.348
[14]
  glycan array binding signal (z-score): 0.281
[15]
  glycan array binding signal (z-score): 0.24
[16]
  glycan array binding signal (z-score): -0.492
[17]
  glycan array binding signal (z-score): 1.89
[18]
  glycan array binding signal (z-score): -0.488
[19]
  glycan array binding signal (z-score): -0.431
